The values below come from the RNAGym collection of RNA variant scans (doi:10.1093/nar/gkz1192).

Read counts are not given, so values of variants with three or more changes are uncertain.

B1: CPEB3 Ribozyme (parent)
chain: UAACAGGGGGCCACAGCAGAAGCGUUCACGUCGCAGCCCCUGUCAGAUUCUGGUGAAUCUGCGAAUUCUGCUGUAUAUCUC

Variants of B1 are the subject of the data set. Kind of data set: self-cleavage, relative activity (ratio to wild type); higher = more cleavage; in vitro, sequencing. In a few lines:
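Barcoded CPEB3 ribozyme mutants, produced by rounds of error-prone PCR, self-cleaved while being transcribed with T7 RNA polymerase for 5 hours at 37°C and during a subsequent 15 min DNase I step before EDTA was added. Sequencing of template-switched cDNA on Illumina gave cleaved and total reads, and DNA sequencing assigned barcodes to variants. Each variant's relative activity is its cleaved/total read fraction divided by the unmutated ribozyme's fraction, averaged across three batches. A variant needed a minimum of 5 reads.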
For A18U U41C G42C U69A, the self-cleavage is 0.17.

On to G19C A57C U67C, for which the self-cleavage was determined as 0.11.

Regarding A18U U60C U78C, the self-cleavage was determined as 0.34.

As for G19A U41C U51C U67A, the self-cleavage turned out to be 0.17.

Turning to A20C U25C A45G, the self-cleavage was found to be 0.09.

Turning to A20C U26A U72C U78C, the self-cleavage worked out at 0.24.

As for A18U U25C U48G U66C, the self-cleavage is 0.32.

On to A18U G33A A35U U58C U72C U76C U78C, for which the self-cleavage is 0.05.

For the variant A18U U26A U31C U41C U72C, the self-cleavage came out at 0.12.

Consider A20C A45U U72C, for which the self-cleavage turned out to be 0.49.

For A18U U51C A56G A65U U78C, the self-cleavage was 0.24.

With G19A A28G U31C A64U U80C, the self-cleavage is 0.41.

As to G19A A28U A47G U67C, the self-cleavage was found to be 0.14.

For G19C G36A A45G U48C U67C U78C, the self-cleavage came to 0.1.

On to G19C U48C U51C, for which the self-cleavage stood at 0.15.

As for A20C A28G G53C, the self-cleavage turned out to be 0.27.

For G19U U26C U72A U78C, the self-cleavage came to 0.13.

As for A18U U31C A47G U58C A64U A77U U78C, the self-cleavage amounted to 0.14.

G19A A28G U48C A56G U80C: the self-cleavage was determined as 0.1.

For the variant A18U U41C A47G A57C C79U, the self-cleavage came out at 0.49.

For the variant A18U U31C U41G A65G, the self-cleavage came to 0.22.

For the variant G19U A21C A56G U74G A75U U78C, the self-cleavage came out at 0.07.

With G19U A35U U48C U76A, the self-cleavage was 0.17.

With A20C G24A U26C U69C, the self-cleavage came to 0.16.

A18U U31C U60C U74C: the self-cleavage worked out at 0.13.

For the variant G19A U58C A64G U74A, the self-cleavage was 0.05.

In the case of A20C U48C A75U, the self-cleavage came to 0.42.

For G19U U41C U69A, the self-cleavage stood at 0.18.

Take G19A U41C U69C: the self-cleavage stood at 0.08.

As for G19C A21G U72A, the self-cleavage turned out to be 0.14.

In the case of A18U U25C U66G U67C C81A, the self-cleavage is 0.21.

On to A18U U25A U74C, for which the self-cleavage is 0.31.

Consider G19A C34U U60A U80C, for which the self-cleavage was determined as 0.05.

Regarding A18U U25C U48A C62U, the self-cleavage turned out to be 0.04.

In the case of A18U C40G A57G U60C C62G A65U, the self-cleavage amounted to 0.09.

With A18U U31A C68U U69A U80C, the self-cleavage worked out at 0.42.

On to A18U G30A U41A A57G C62G U74C C79A, for which the self-cleavage was found to be 0.07.

For the variant G19A A28U U41C G42C A56G A75G A77G, the self-cleavage was 0.05.

Consider G19C U25C A35G U43A A57G, for which the self-cleavage was determined as 0.06.

With G19U A35U G46A U54C C71G, the self-cleavage was 0.06.

In the case of G19A U41C U54A U60C, the self-cleavage stood at 0.17.

In the case of G19U U51A U69C, the self-cleavage is 0.13.

Turning to A18U U26A U31C U41C U60A U72C, the self-cleavage stood at 0.19.

A18U U25C U31A G52A: the self-cleavage came to 0.17.

Consider G19C U25C A35G A57G U58A, for which the self-cleavage was determined as 0.21.

G19A A21G U41A A56G A64U: the self-cleavage was 0.43.

On to G19A U25C U41C U51C, for which the self-cleavage was found to be 0.04.

On to G19C C29U U41A G46A A47G U54C, for which the self-cleavage was 0.18.

On to A18U U41C A45C, for which the self-cleavage worked out at 0.55.

With G19U U25C U41C C50U U60A, the self-cleavage amounted to 0.14.

Consider G19A A56G U60A U69C, for which the self-cleavage worked out at 0.4.

Regarding A18U U54A U58C, the self-cleavage was 0.31.

For the variant G19A A20G U31A U76C A77U, the self-cleavage came out at 0.13.

In the case of A18U U26A A56G U74A, the self-cleavage came to 0.21.

On to A18U U31C U49G, for which the self-cleavage is 0.16.

Regarding G19U U41C U49C U72C, the self-cleavage came out at 0.16.

For the variant A18U C39U A47G G53U U54C, the self-cleavage is 0.15.

For the variant A18U U41G U80A, the self-cleavage came to 0.28.

For the variant A18U U26C U60C, the self-cleavage amounted to 0.11.

In the case of G19U U31C U48C U78C, the self-cleavage was 0.12.

A18U G19U A21U U69A: the self-cleavage amounted to 0.14.

Regarding A18U U26C U51C U78C, the self-cleavage was 0.06.

G19C C34A A45U U54G A56G U78A: the self-cleavage was found to be 0.1.

With A20G A21G A28U C44A, the self-cleavage is 0.29.

Take A18U U26A U54C: the self-cleavage was 0.2.

With A20C G30A C44U A64U, the self-cleavage was determined as 0.11.

With A18U U25A A65U G73A, the self-cleavage is 0.29.

Regarding A18U G33A U48C, the self-cleavage was 0.16.

Regarding A18U C39G A45U U54A U58C, the self-cleavage stood at 0.15.

Regarding G19C A35U U41C A77G, the self-cleavage is 0.21.

For A18U U31C U49C U69A, the self-cleavage was determined as 0.16.

A18U U26C A57G: the self-cleavage was 0.09.

On to G19A U26C U41A U60A, for which the self-cleavage is 0.07.

In the case of G19U A65U A75U, the self-cleavage worked out at 0.09.

Consider A18U U25C A35G A65U U72C, for which the self-cleavage turned out to be 0.06.

Consider G19A U31C A64G U74G A75G, for which the self-cleavage is 0.12.

As for A18U U31A U78A, the self-cleavage was determined as 0.43.

In the case of A18U U26A C27U A28G U41A G63A, the self-cleavage is 0.09.

With A20C U26A U49C U72C U74C, the self-cleavage amounted to 0.07.

Consider G19A U26A A35G U41C U78C, for which the self-cleavage was determined as 0.29.

A18U U41G A57G U60A A77G: the self-cleavage is 0.21.

G19A U43C U54C G55U U67A: the self-cleavage worked out at 0.1.

Take A18U U25C U78C: the self-cleavage turned out to be 0.32.
